This is one part of the list.
System: T1, C. trachomatis L2/434/Bu expressing GFP (CTL2-GFP)
T1 construct: L2/434/Bu GFP intracellular growth in HeLa cells
Design: species or system HeLa; C. trachomatis total inclusion area by high-content imaging, normalised to DMSO
Conditions: total inclusion area; 28.5 h, 10 µM; inhibitor
Outline: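 Following bulk GFP and resorufin fluorescence reads, infected cells were fixed, Hoechst-stained and imaged on a high-content platform. Inclusion total area and number per well served as growth proxies; nuclei counts indicated host viability. MICs were derived as for the fluorescence assay.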

Compared with C/C(=C\C(=O)Nc1ccc(O)cc1C(=O)O)c1ccccc1 [CBK265125], O=C(CSCc1ccccc1Cl)NNC(=O)c1cccnc1 [CBK267826] is lower in “% of control remaining” value: 95.5712 for the first, 82.0892 for the second.

Compared with O=C(c1ccccc1F)N1CCC(O)(c2ccc(F)cc2)CC1 [CBK281943], Cn1cc(C(=O)NCC(c2ccccc2F)N2CCCC2)ccc1=O (stereo not shown) [CBK281950] is higher in “% of control remaining” value: 107.804 for the first, 137.085 for the second.

First: O=C1CO[C@H]2CN(S(=O)(=O)c3ccccc3)C[C@H]2N1c1ccccc1 [CBK289236]
Second: Cc1ccc(S(=O)(=O)N2CC[C@H](c3nnc(-c4ccccc4)o3)C2)cc1 [CBK289405]
The “% of control remaining” value of the first is higher: 115.061 for the first, 110.422 for the second.

Going from Oc1ccc(/C=N/N=C/c2ccc(O)c(O)c2)cc1O [CBK261641] to O=C(O)c1cccc(-n2cc(-c3cccc(C(F)(F)F)c3)nn2)c1 [CBK112949], the “% of control remaining” value rises from 85.6743 to 112.335.

First: NCCNC(=O)c1cc2cc(F)ccc2[nH]1 [CBK107345]
Second: Cc1ccc(C(=O)NCCCc2ccc(Cl)cc2)c(=O)n1C [CBK281567]
The “% of control remaining” value of the first is lower: 85.4891 for the first, 113.489 for the second.

Compared with COc1ccc(C)cc1NC(=O)CCN1CCN(C)CC1 [CBK264216], CCOC(=O)CN1CCN(S(=O)(=O)c2cc(Cl)ccc2Cl)CC1 [CBK044628] is higher in “% of control remaining” value: 96.7055 for the first, 101.965 for the second.

Compared with O=C(O)CCCC(=O)Nc1ccccc1Br [CBK261322], CCCCCC1CC(CC(=O)NC(=S)Nc2ccccc2Cl)C(=O)O1 (stereo not shown) [CBK019495] is higher in “% of control remaining” value: 91.0423 for the first, 94.4774 for the second.

First: FC(F)(F)c1ccc(OCCOc2ccccc2)nc1 [CBK115829]
Second: COc1ccc(Nc2ccc(-c3cccc(OC(F)(F)F)c3)cn2)cn1 [CBK037022]
The “% of control remaining” value of the first is lower: 101.295 for the first, 138.108 for the second.

Going from O=C(NCCc1cccs1)NC1CCCc2c1cnn2CCO (stereo not shown) [CBK306324] to Cc1nnc(SCCN2CCOC2=O)n1CCc1cccs1 [CBK304029], the “% of control remaining” value rises from 7.977 to 86.5973.

Going from C(=N\Nc1nnc(-c2ccccc2)c(-c2ccccc2)n1)/c1cccnc1 [CBK262025] to Nc1ccc(-c2cncc(NCc3ccccc3)n2)cc1 [CBK065578], the “% of control remaining” value falls from 105.378 to 62.214.

First: CN1CCN(c2ccc(NC(=S)NC(=O)c3cc4ccccc4o3)cc2)CC1 [CBK266240]
Second: Cc1ccc(-c2nnc(SCC(=O)Nc3ccc(N4CCOCC4)cc3)n2C)cc1 [CBK270247]
The “% of control remaining” value of the first is higher: 120.594 for the first, 74.4308 for the second.

Compared with Cc1ccc(CN(CC(=O)N2CCCCC2)S(=O)(=O)c2ccc(C)cc2)cc1 [CBK264646], CN(Cc1ccc(N2CCCCC2)cc1)S(=O)(=O)c1ccsc1C(=O)O [CBK295333] is lower in “% of control remaining” value: 109.71 for the first, 61.6611 for the second.

Going from Cc1nn(C)c(C)c1CC(=O)Nc1cccc(CN2CCCCC2)c1 [CBK304547] to COc1cccc(CN2CCN(C(=O)c3cc(C)[nH]c3C)[C@@H](C)C2)c1 [CBK284255], the “% of control remaining” value rises from 19.6785 to 89.6631.

Compared with Cc1cc(=O)nc(SC(C)C(=O)O)[nH]1 (stereo not shown) [CBK264630], CCc1cccc(-n2nc(C)c3c2NC(=O)CC3C(=O)c2ccc(CC)s2)c1 (stereo not shown) [CBK294435] is lower in “% of control remaining” value: 106.921 for the first, 70.3488 for the second.

First: Cc1cnn(CCC(=O)N2CCOC(c3nc(C(C)(C)C)n[nH]3)C2)c1 (stereo not shown) [CBK305336]
Second: Cc1ccc(-c2n[nH]c(=S)n2CC(=O)N(C)Cc2ccc(N3CCOCC3)cc2)cc1 [CBK297908]
The “% of control remaining” value of the first is lower: 95.9408 for the first, 100.604 for the second.

Compared with O=C1CCC(=O)N1CCOc1nccnc1N1CCN(CCc2ccccn2)CC1 [CBK084309], Clc1cccc(CN2CCC(N3CCN(c4ccccc4)CC3)CC2)c1 [CBK264690G] is higher in “% of control remaining” value: 75.5149 for the first, 88.2605 for the second.

First: CC(C)OC(=O)CSc1nnc(-c2cnccn2)n1Cc1ccco1 [CBK267586]
Second: Cc1cc(NC(=O)CSc2ccc3nnc(-c4ccccc4)n3n2)no1 [CBK287518]
The “% of control remaining” value of the first is higher: 103.181 for the first, 92.7494 for the second.

Going from O=C1NC(=O)c2cc(S(=O)(=O)NCCCO)cc3cccc1c23 [CBK267602] to CN(C)CCCNc1c(N)c(=O)oc2ccccc12 [CBK261468], the “% of control remaining” value falls from 96.8189 to 95.2216.

First: COc1ccc2c(-c3cc(N)sn3)c(C)oc2c1 [CBK022260]
Second: COc1ccc(-c2csc(Nc3ccc(S(=O)(=O)Nc4cc(C)on4)cc3)n2)cc1OC [CBK261797B]
The “% of control remaining” value of the first is lower: 85.2625 for the first, 89.1995 for the second.

First: Cc1cccn2c(CN3CCCOCC3)c(C(=O)N3CCOCC3)nc12 [CBK307144]
Second: CN1CCN(C(=O)CSc2nc(-c3cccs3)cc(C(F)(F)F)n2)CC1 [CBK307372]
The “% of control remaining” value of the first is lower: 70.937 for the first, 93.5155 for the second.

First: CN(C(=O)c1cccs1)c1ccc(Oc2ncc(C(F)(F)F)cc2Cl)cc1 [CBK161654]
Second: COc1ccc(Cl)cc1NC(=O)NC(=O)C1CCN(CCOc2cccc3ccccc23)CC1 [CBK035116]
The “% of control remaining” value of the first is lower: 75.2751 for the first, 77.8537 for the second.

First: Cc1cc(C)n(C2CCN(Cc3cn(C)c4cc(F)ccc34)CC2)n1 [CBK281806]
Second: CCn1nccc1N1CCCC(NC(=O)CCc2ccccc2Cl)C1=O (stereo not shown) [CBK305455]
The “% of control remaining” value of the first is higher: 96.7313 for the first, 64.114 for the second.

First: CN(C)S(=O)(=O)N1CCC(Cc2ccccc2)CC1 [CBK263768]
Second: O=C(NC1CCCCC1)N1CC[C@H](c2nc3ccccc3o2)C1 [CBK289372]
The “% of control remaining” value of the first is lower: 95.3745 for the first, 95.6138 for the second.

Going from COC1CCCC(C(=O)N2CCC(c3onc4c3CCCC4)CC2)C1 (stereo not shown) [CBK284598] to COCc1ccc(C(=O)N2CCN3C(=O)CCC32C)o1 (stereo not shown) [CBK282091], the “% of control remaining” value rises from 65.3233 to 84.4619.

First: COC(=O)CC(C)(C)/C(C)=N/NS(=O)(=O)c1ccc(C)cc1 [CBK263602]
Second: Cc1nc(-c2ccc(NCCc3nc(C4CC4)cs3)nc2)[nH]c(=O)c1C [CBK304424]
The “% of control remaining” value of the first is higher: 98.2811 for the first, 43.7599 for the second.

Going from Nc1nonc1-c1nc2ccccc2n1Cc1ccc(-c2nn[nH]n2)cc1 [CBK267648] to Nc1nonc1OCCCCOc1nonc1N [CBK027716], the “% of control remaining” value falls from 93.0871 to 5.818.

— PMC12040169 (PLOS Biology, 2025)
